# The list shows a part of the results. The full chains were built here from the parent and the listed change. Values near 0.05 are background.
# B1: TEV protease; numbered along this chain (parent)
# chain: MGESLFKGPRDYNPISSSICHLTNESDGHTTSLYGIGFGPFIITNKHLFRRNNGTLVVQSLHGVFKVKDTTTLQQHLVDGRDMIIIRMPKDFPPFPQKLKFREPQREERICLVTTNFQTKSMSSMVSDTSCTFPSGDGIFWKHWIQTKDGQCGSPLVSTRDGFIVGIHSASNFTNTNNYFTSVPKNFMELLTNQEAQQWVSGWRLNADSVLWGGHKVFMVKPEEPFQPVKEATQL
# Variants of: B1
# Experiment: raw area under fraction-flipped curve 0-4 h after induction (AUC4h, not background-subtracted), DNA-recorder readout of cleavage of the substrate (dimensionless); higher = more cleavage of the substrate by the protease variant
# Details: temperature: 34 °C; time window: 0-4 h after rhamnose induction
# 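Note: Bxb1 expression induced with 0.2% (w/v) L-rhamnose at OD600 near 0.5, cultures sampled hourly, flipped fraction per protease–substrate barcode pair counted by paired-end Illumina sequencing.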
variant,measurement,value
E189A,area with substrate ENLYFQI,0.0715
same,area with substrate ENLYFQN,0.0784
same,area with substrate ENLYFQS,0.098
same,area with substrate ENLYFQT,0.0689
same,area with substrate ENLYFQV,0.0536
M122T,area with substrate ENLYFQI,0.0559
same,area with substrate ENLYFQK,0.0897
same,area with substrate ENLYFQM,0.0915
same,area with substrate ENLYFQN,0.0897
same,area with substrate ENLYFQP,0.0563
same,area with substrate ENLYFQR,0.0566
same,area with substrate ENLYFQS,0.106
same,area with substrate ENLYFQV,0.0565
same,area with substrate ENLYFQW,0.049
G8Q,area with substrate ENLYFQN,0.0826
same,area with substrate ENLYFQS,0.113
same,area with substrate ENLYFQT,0.0698
same,area with substrate ENLYFQV,0.0561
V183R,area with substrate ENLYFQI,0.0431
same,area with substrate ENLYFQL,0.0468
same,area with substrate ENLYFQM,0.0494
same,area with substrate ENLYFQP,0.0617
same,area with substrate ENLYFQS,0.0521
same,area with substrate ENLYFQW,0.0455

# From the supplement of paper PMC12217912
